The results in this text go back to article PMC10668032.

Some of the results follow. At the low end of the ranking, values are background and their order means little.

This experiment addresses SIX1 homeodomain (reference allele) (UniProt Q15475). Kind of experiment: universal protein binding microarray. As to conditions: Universal all-10-mer PBM (8x60K, AMADID 030236), 300 nM GST-tagged protein, Alexa Fluor 488 anti-GST; buffer, salt, pH and temperature not stated; high values mean tight binding; most listed sequences are background and not binding sites; double strand, one strand shown.
On to GCAGTCTA, for which the binding signal is -0.196 E-score.

For the sequence ATCCTTCC, the binding signal was determined as 0.255 E-score.

Turning to TCCCTCAA, the binding signal was 0.0328 E-score.

In the case of GTGAGGAA, the binding signal is -0.132 E-score.

With GGTGGTTA, the binding signal was -0.0976 E-score.

In the case of CACACTCG, the binding signal is 0.175 E-score.

As for TATAATGA, the binding signal was found to be 0.112 E-score.

In the case of AGGAACCA, the binding signal was -0.122 E-score.

As to CATCTGCC, the binding signal was 0.0408 E-score.

Consider AGCGAGTC, for which the binding signal was -0.278 E-score.

As to ACGCATGG, the binding signal was 0.206 E-score.

Regarding CAGTTGGA, the binding signal is -0.0924 E-score.

In the case of GCCCTAGA, the binding signal was -0.229 E-score.

With AGTCATAG, the binding signal was -0.0693 E-score.

Turning to ATCGTGTA, the binding signal stood at 0.272 E-score.

Take CATCTCAC: the binding signal is 0.244 E-score.

Take GAGCTTGC: the binding signal was -0.114 E-score.

Regarding AATAACTA, the binding signal was -0.173 E-score.

For the sequence CTTAGTAC, the binding signal is -0.0566 E-score.

AGTTTCTA: the binding signal was -0.337 E-score.

Take GGGACTAC: the binding signal is -0.134 E-score.

As to ACATAAGA, the binding signal was 0.0712 E-score.

AGCACCTC: the binding signal is -0.181 E-score.

For the sequence ATGTTAGG, the binding signal is -0.109 E-score.

Consider AGCGGTAA, for which the binding signal is -0.214 E-score.

Take GACCAAAA: the binding signal is -0.248 E-score.

Turning to AACACAAG, the binding signal is -0.273 E-score.

As to AATCTCCT, the binding signal was -0.00675 E-score.

Regarding GAGGGAGA, the binding signal was 0.0615 E-score.

In the case of CGTAATAG, the binding signal was -0.0392 E-score.

For AGGAGTAC, the binding signal is -0.0811 E-score.

In the case of CCTTCCAC, the binding signal is -0.189 E-score.

With CAACGGGG, the binding signal is -0.056 E-score.

In the case of TATACAGA, the binding signal is 0.216 E-score.

For the sequence AGCAGTCC, the binding signal was -0.322 E-score.

As for ATGCTCCG, the binding signal stood at 0.0409 E-score.

For the sequence AAGGGGGT, the binding signal was 0.13 E-score.

For GAGTACAA, the binding signal was -0.0437 E-score.

CACTAAAG: the binding signal was -0.318 E-score.

Turning to ATCCGTGC, the binding signal came out at 0.253 E-score.

As to TACCAGCA, the binding signal was -0.0257 E-score.

For TATGAAGA, the binding signal was found to be 0.0819 E-score.

Turning to GCCGAAGC, the binding signal was -0.0838 E-score.

For AGTTGACG, the binding signal is -0.178 E-score.

As for GAAAAGTA, the binding signal was -0.0938 E-score.

For the sequence CCCCGGAC, the binding signal is -0.0529 E-score.

For AAATGGAA, the binding signal is -0.284 E-score.

On to AAGATATG, for which the binding signal stood at 0.303 E-score.

For the sequence AAAACCAG, the binding signal is 0.0442 E-score.

On to ACCTAAAT, for which the binding signal was -0.0188 E-score.

Turning to GTGACGAA, the binding signal was -0.174 E-score.

On to ACGCAACA, for which the binding signal was -0.153 E-score.

As to AGCCTCTC, the binding signal was -0.195 E-score.

Turning to GTATTGAC, the binding signal was determined as 0.192 E-score.

CCTTGCAG: the binding signal was -0.0753 E-score.

As to AGGGCAGA, the binding signal stood at 0.019 E-score.

Regarding CAAGCCAG, the binding signal is -0.133 E-score.

On to TAGATCTA, for which the binding signal turned out to be 0.175 E-score.

With CATACCCG, the binding signal was 0.259 E-score.

Take ACGTCAAA: the binding signal was -0.273 E-score.

For the sequence GGCACGCA, the binding signal was -0.208 E-score.

In the case of CCGTACAC, the binding signal was 0.081 E-score.

CAAGTGAC: the binding signal was 0.0332 E-score.

Take ACTCTGCT: the binding signal was -0.186 E-score.

For GCGCGGCA, the binding signal was -0.186 E-score.

CCAGCGAC: the binding signal was -0.21 E-score.

For AAGGACCT, the binding signal is -0.292 E-score.

Take ATCACGGG: the binding signal was determined as 0.104 E-score.

With TGTTTGAA, the binding signal was -0.147 E-score.

With ATCGCTGG, the binding signal was determined as 0.23 E-score.

CTCCATAA: the binding signal was -0.283 E-score.

Consider AGCTAACC, for which the binding signal is -0.166 E-score.

On to ACGGGGCA, for which the binding signal is -0.0345 E-score.

For CAGCGACC, the binding signal was -0.0129 E-score.

On to CTACCTTA, for which the binding signal is -0.00171 E-score.

As for CAGTTAAA, the binding signal was -0.281 E-score.

Turning to CAGAGTGA, the binding signal worked out at 0.148 E-score.

With CACTTGAG, the binding signal was -0.0599 E-score.

Regarding GAAGAATC, the binding signal was found to be 0.124 E-score.

In the case of GGACCTCA, the binding signal is -0.17 E-score.

Take CCAGCGGC: the binding signal is -0.158 E-score.

Consider GCAAGCGC, for which the binding signal is -0.172 E-score.

ATGGTGGG: the binding signal is -0.0179 E-score.

For the sequence CTGGCTCA, the binding signal came to 0.049 E-score.

Take ATTATTGA: the binding signal worked out at 0.0348 E-score.

Consider GGCGTCGA, for which the binding signal was -0.119 E-score.

Consider ATACGGCC, for which the binding signal worked out at 0.344 E-score.

Consider AAATCTCT, for which the binding signal is -0.279 E-score.

On to CTGTAGAA, for which the binding signal is -0.137 E-score.

As for GCTCTCTA, the binding signal is -0.0409 E-score.

As to AGCAAAAC, the binding signal is -0.251 E-score.

As for CTATCAAA, the binding signal was found to be 0.258 E-score.

As for CGGCTATC, the binding signal worked out at 0.353 E-score.

For ATCTCTCA, the binding signal was determined as 0.252 E-score.

As for GACATACA, the binding signal is -0.0412 E-score.

Consider GAGTGCGC, for which the binding signal was -0.25 E-score.

As to AATGTCCC, the binding signal is -0.102 E-score.

Take GAGATCCA: the binding signal is 0.332 E-score.

ATAATATG: the binding signal was found to be 0.27 E-score.

With ACTATCAA, the binding signal was 0.253 E-score.

Turning to AAGTGACC, the binding signal stood at 0.0405 E-score.

Consider GAGGTACA, for which the binding signal is -0.0245 E-score.

On to CCCGAATC, for which the binding signal is 0.0551 E-score.

For GTATAACA, the binding signal worked out at 0.238 E-score.

Turning to GTGGCCGA, the binding signal was -0.0528 E-score.

As to ACATCAAT, the binding signal is -0.163 E-score.

In the case of AGGTGGAT, the binding signal came out at 0.305 E-score.

As to ATTATTCA, the binding signal worked out at 0.138 E-score.

Turning to ATGGAAGA, the binding signal is -0.0359 E-score.

Take ACGGGGGA: the binding signal amounted to 0.217 E-score.

Consider ATACCTTC, for which the binding signal was 0.323 E-score.

For the sequence CATGTTTC, the binding signal is -0.112 E-score.

For ACCCACGC, the binding signal is -0.0578 E-score.

Consider ACAATGGA, for which the binding signal turned out to be 0.118 E-score.

As for AGCTAGGG, the binding signal came out at 0.0411 E-score.

As for AAAATACA, the binding signal was -0.0125 E-score.

GGTTTAGA: the binding signal is 0.124 E-score.

AGGAGGCA: the binding signal is -0.119 E-score.

As to GCTTCGTA, the binding signal was -0.0231 E-score.

As to CACTGCCA, the binding signal was -0.0495 E-score.

Regarding ACGAATAT, the binding signal stood at 0.179 E-score.

Consider GATATCCA, for which the binding signal was determined as 0.452 E-score.

As for GCGCCGCA, the binding signal was -0.194 E-score.

In the case of CTAGCAGA, the binding signal amounted to 0.0232 E-score.

Regarding ATTCGAAT, the binding signal is -0.235 E-score.

On to ACGAGGAT, for which the binding signal came out at 0.134 E-score.

Take ATCTGAAT: the binding signal stood at 0.0787 E-score.

With ACGTGTGC, the binding signal is -0.0816 E-score.

Consider ACTGGGAA, for which the binding signal was -0.191 E-score.

AACGCCAC: the binding signal is -0.157 E-score.

Regarding ACCCAAAG, the binding signal is -0.191 E-score.

GTGCTCAA: the binding signal is -0.00172 E-score.

GCCCGGCA: the binding signal was -0.228 E-score.

Consider AGCTTTAG, for which the binding signal was -0.114 E-score.

Consider CTACCGCA, for which the binding signal is -0.00924 E-score.

On to CATAGCAA, for which the binding signal was -0.147 E-score.

Turning to GTTAACCA, the binding signal is -0.218 E-score.

For AGTCCAGC, the binding signal was -0.247 E-score.

As to ATTTGGGG, the binding signal was 0.0858 E-score.

CTCCTTCA: the binding signal was -0.119 E-score.

Turning to ATTCCGTC, the binding signal was -0.137 E-score.

Regarding AGTCCCCC, the binding signal was -0.132 E-score.

For the sequence GGACCGAC, the binding signal is -0.0671 E-score.

Consider ACATCCAA, for which the binding signal is -0.174 E-score.

As to CACAGGCA, the binding signal is -0.0965 E-score.

For the sequence AGCAAGGC, the binding signal is -0.197 E-score.

Take GCATCCTA: the binding signal stood at 0.108 E-score.

As for GTCTTAGA, the binding signal was -0.118 E-score.

Consider GAAATAGA, for which the binding signal was found to be 0.0945 E-score.

GGGCCAAA: the binding signal is -0.191 E-score.

Turning to GAAAGTCA, the binding signal is -0.364 E-score.

On to CGAGACCA, for which the binding signal is -0.0423 E-score.

As to ATCACCGA, the binding signal was 0.251 E-score.

For GCACTCTA, the binding signal is -0.0542 E-score.

In the case of ACAGTGTA, the binding signal came to 0.0563 E-score.

As for TCCTCCCA, the binding signal is -0.0118 E-score.

CGACACGC: the binding signal amounted to 0.0501 E-score.

As for ACGATATA, the binding signal amounted to 0.296 E-score.

As for GCCACACC, the binding signal worked out at 0.0417 E-score.

Turning to GCCTAGGC, the binding signal is -0.284 E-score.

For the sequence CAGCATAC, the binding signal is -0.0472 E-score.

For the sequence GCGGCTCC, the binding signal was -0.171 E-score.

Turning to CGCTTTCA, the binding signal is -0.2 E-score.

CTCGAACC: the binding signal was -0.245 E-score.

On to ATCCACGG, for which the binding signal was 0.187 E-score.

CTATAATC: the binding signal worked out at 0.157 E-score.

Take GTTGGCGA: the binding signal is -0.129 E-score.

Regarding ACACGTAA, the binding signal is 0.00241 E-score.

As for AGAGGAGA, the binding signal was -0.0368 E-score.

For GCGTCACC, the binding signal is -0.264 E-score.

With ACGACTCG, the binding signal turned out to be 0.0337 E-score.

Regarding GCTGGTGA, the binding signal turned out to be 0.0944 E-score.
